Experimental data taken from PubChem BioAssay (NCATS).
Values joined by “and” are separate entries in the source; they are usually repeats but may differ in a detail not shown here. Identical values can stand only once. The inconclusive results got no clear call from the source; some entries with a clear call stand among them for comparison. Potencies beside an inconclusive call are fits to weak or partial responses and may not hold up. The source holds several records for some structures; these can differ, active in one and inactive in another. Active and inactive are the calls of the source. Calls follow the shape of the dose curve; as a rule, active = well fitted curve in the direction sought with a large enough effect; inconclusive = small, poorly fitted or top-dose-only effect, or another doubt; inactive = no such curve, though single readings can be large; an effect the other way counts as inactive or inconclusive.

Experiments:
C33A = assay: Primary qHTS to identify gynecologic anti-cancer compounds using libraries of approved drugs and bioactive compounds (AID 1345084); conditions: Gynecologic cancer cell panel viability, ATPlite luminescence, 48 h; series mostly up to 57.5 µM; also: nearly all actives have a fitted effect of over 55% in size
Summary of the method: (§1)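 ATP-based viability (ATPlite), 1,000 cells/well, 16 h pre-incubation, 48 h compound at 37 C, 5% CO2, 15 min RT before read.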

MKL-1 = assay: qHTS assay to identify novel small-molecules to repurpose for Merkel cell carcinoma treatment (AID 1296009); conditions: MCC and control cell lines, CellTiter-Glo viability, 72 h; activity change, negative = cytotoxicity: at 46 µM (top of the series); also: nearly all actives have a fitted effect of over 60% in size
Summary of the method: (§2)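 Luminescence from CellTiter-Glo, read 10 min after addition at room temperature, reported viability following a 72 hr, 37 degree celsius treatment with NPC or MIPE compounds in titration; values normalized to plate controls.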

MKL-2 = assay: as above; conditions: MCC and control cell lines, CellTiter-Glo viability, 72 h; activity change, negative = cytotoxicity: at 46 µM (top of the series)
Summary of the method: as §2

MCC-26 = assay: as above; conditions: MCC and control cell lines, CellTiter-Glo viability, 72 h; series mostly up to 46 µM
Summary of the method: as §2

UISO = assay: as above; conditions: MCC and control cell lines, CellTiter-Glo viability, 72 h; series mostly up to 46 µM
Summary of the method: as §2

CAOV3 = assay: Primary qHTS to identify gynecologic anti-cancer compounds using libraries of approved drugs and bioactive compounds (AID 1345084); conditions: Gynecologic cancer cell panel viability, ATPlite luminescence, 48 h; series mostly up to 57.5 µM; also: nearly all actives have a fitted effect of over 55% in size
Summary of the method: as §1

CASKI = assay: as above; conditions: Gynecologic cancer cell panel viability, ATPlite luminescence, 48 h; series mostly up to 57.5 µM
Summary of the method: as §1

Es-2 = assay: as above; conditions: Gynecologic cancer cell panel viability, ATPlite luminescence, 48 h; series mostly up to 57.5 µM
Summary of the method: as §1

WaGa = assay: qHTS assay to identify novel small-molecules to repurpose for Merkel cell carcinoma treatment (AID 1296009); conditions: MCC and control cell lines, CellTiter-Glo viability, 72 h; series mostly up to 46 µM; also: nearly all actives have a fitted effect of over 60% in size
Summary of the method: as §2

HeLa = assay: Primary qHTS to identify gynecologic anti-cancer compounds using libraries of approved drugs and bioactive compounds (AID 1345084); conditions: Gynecologic cancer cell panel viability, ATPlite luminescence, 48 h; series mostly up to 57.5 µM; also: nearly all actives have a fitted effect of over 55% in size
Summary of the method: as §1
% is scaled to controls: 0 for no effect and ±100 for the full control effect; potency is read from the fitted curve at half-maximal effect; tags tell the direction and shape of the fitted curve.

Cc1cc(C(=O)N2CCN(c3cccc(Cl)c3)CC2)n(-c2ccccc2)n1
Potency (C33A): inconclusive: 22.4 µM [cytotoxic, single point]

COc1cc([C@@H]2c3cc4c(cc3[C@H](O)[C@H]3COC(=O)[C@H]23)OCO4)cc(OC)c1OC
Potency (C33A): inconclusive: 0.178 µM [cytotoxic, full curve, poor fit]

C=CCc1ccc(O)c(-c2ccc(O)c(CC=C)c2)c1
Potency (MKL-1): inconclusive: 29.6 µM [inhibitor, single point] | activity change, negative = cytotoxicity (MKL-2): inconclusive: -43.2% [inhibitor]

CC(C)(C)c1[nH]cnc1C=c1[nH]c(=O)c(=Cc2ccccc2)[nH]c1=O
Potency (MCC-26): inconclusive: 0.0068 µM [inhibitor, full curve] | Potency (UISO): active: 0.0121 µM

O=C(OC1C[C@H]2CC[C@@H](C1)[N+]21CCCC1)C(O)(c1ccccc1)c1ccccc1 (some centres undefined)
Potency (MKL-1): inactive

COC(=O)C1=C(C)NC(C)=C(C(=O)OCCCN2CCC(c3ccccc3)(c3ccccc3)CC2)C1c1cccc([N+](=O)[O-])c1 (centres undefined)
Potency (MCC-26): active: 23.7 µM | Potency (MKL-2): active: 11.9 µM | Potency (CAOV3): inconclusive: 39.8 µM [cytotoxic, single point] | Potency (CASKI): inconclusive: 35.5 µM [cytotoxic, single point] | Potency (Es-2): inconclusive: 31.6 µM [cytotoxic, single point]

OCCN1CCN(CCCN2c3ccccc3Sc3ccc(C(F)(F)F)cc32)CC1
Potency (MCC-26): inconclusive: 26.6 µM [inhibitor, partial curve] | Potency (CASKI): inconclusive: 20 µM [cytotoxic, partial curve, poor fit]

CCCCCCCCCC(=O)N[C@@H](Cc1c[nH]c2ccccc12)C(=O)N[C@H](CC(N)=O)C(=O)N[C@@H](CC(=O)O)C(=O)N[C@@H]1C(=O)NCC(=O)N[C@@H](CCCN)C(=O)N[C@@H](CC(=O)O)C(=O)N[C@H](C)C(=O)N[C@@H](CC(=O)O)C(=O)NCC(=O)N[C@H](CO)C(=O)N[C@@H]([C@@H](C)CC(=O)O)C(=O)N[C@@H](CC(=O)c2ccccc2N)C(=O)O[C@@H]1C
Potency (MKL-1): inactive

CN1CCN(CCOc2cc(OC3CCOCC3)c3c(Nc4c(Cl)ccc5c4OCO5)ncnc3c2)CC1
Potency (MCC-26): inconclusive: 5.26 µM [inhibitor, full curve] | Potency (CAOV3): inconclusive: 35.5 µM [cytotoxic, partial curve, poor fit] | Potency (CASKI): inconclusive: 14.1 µM [cytotoxic, partial curve, poor fit]

CON(C)C(=O)N1N=C(c2cc(F)ccc2F)S[C@]1(CCCN)c1ccccc1
Potency (MCC-26): inconclusive: 0.0066 µM [inhibitor, full curve] | Potency (WaGa): inactive

O=C(O)C1=NC(C(=O)O)CC(C=CN2c3cc(O)c(OC4OC(CO)C(O)C(O)C4O)cc3CC2C(=O)O)=C1 (centres undefined)
Potency (MCC-26): inactive | Potency (WaGa): inactive

Cc1c(O)cccc1C(=O)N[C@@H](CSc1ccccc1)[C@H](O)CN1C[C@H]2CCCC[C@@H]2C[C@@H]1C(=O)NC(C)(C)C
Potency (MCC-26): inactive | Potency (UISO): inconclusive: 33.2 µM [inhibitor, single point] | Potency (WaGa): inconclusive: 33.2 µM [inhibitor, single point]

NC[C@H]1O[C@H](O[C@@H]2[C@@H](O)[C@@H](O[C@H]3O[C@H](CO)[C@@H](O)[C@H](N)[C@@H]3O)[C@H](N)C[C@@H]2N)[C@H](O)[C@@H](O)[C@H]1O
Potency (MKL-1): inconclusive: 8.33 µM [inhibitor, single point] | Potency (MKL-2): inactive

CCOC(=O)Nc1ccc(NCc2ccc(F)cc2)nc1N
Potency (MCC-26): inactive | Potency (WaGa): active: 21.1 µM

CCOC(=O)C1=C(O)C(=O)N(Cc2ccccc2)C1
Potency (MKL-1): inactive

Cc1coc2c1C(=O)C(=O)c1c-2ccc2c1CCCC2(C)C
Potency (MCC-26): inconclusive: 9.35 µM [inhibitor, single point] | Potency (WaGa): inactive | Potency (HeLa): inconclusive: 25.1 µM [cytotoxic, partial curve, poor fit]

NC(=O)c1ncn([C@@H]2O[C@H](CO)[C@@H](O)[C@@H]2O)c1O
Potency (MKL-1): inactive

CC(C)=CCCC(C)=CCCC(C)=CCCC(C)=CCCC(C)=CCCC(C)=CCCC(C)=CCCC(C)=CCCC(C)=CCO
Potency (MKL-1): inactive

CC(C)C[C@H](NC(=O)[C@H](CCc1ccccc1)NC(=O)CN1CCOCC1)C(=O)N[C@@H](Cc1ccccc1)C(=O)N[C@@H](CC(C)C)C(=O)[C@@]1(C)CO1
Potency (MCC-26): active: 0.105 µM | Potency (UISO): active: 18.8 nM and active: 59 nM | Potency (WaGa): active: 4.7 nM and active: 29.6 nM | Potency (CAOV3): inconclusive: 0.0316 µM | Potency (CASKI): active: 0.316 µM | Potency (Es-2): active: 0.316 µM | Potency (HeLa): active: 0.794 µM

O=c1cc(N2CCOCC2)oc2c(-c3cccc4c3sc3ccccc34)cccc12
Potency (MKL-1): inactive

Cc1ccccc1-n1c(Cn2nc(-c3cccc(O)c3)c3c(N)ncnc32)nc2cccc(C)c2c1=O
Potency (MCC-26): inconclusive: 29.6 µM [inhibitor, partial curve, poor fit] | Potency (WaGa): active: 0.118 µM

Cc1ccc(C(=O)N(CCCN)[C@@H](c2oc3cc(Cl)ccc3c(=O)c2Cc2ccccc2)C(C)C)cc1
Potency (MCC-26): inconclusive: 0.0059 µM [inhibitor, full curve] | Potency (UISO): inconclusive: 59 µM [inhibitor, partial curve, poor fit]

CN1CCN(Cc2ccc(NC(=O)Nc3ccc(Oc4cc(NC(=O)C5CC5)ncn4)cc3)cc2C(F)(F)F)CC1
Potency (MCC-26): active: 1.18 µM | Potency (WaGa): inconclusive: 6.62 µM [inhibitor, partial curve, poor fit] | Potency (CAOV3): inconclusive: 3.55 µM [cytotoxic, full curve, poor fit] | Potency (CASKI): active: 1.78 µM | Potency (Es-2): active: 1.58 µM | Potency (HeLa): active: 0.891 µM

CN(C)c1ccc(O)c2c1C[C@H]1C[C@H]3[C@H](N(C)C)C(=O)C(C(N)=O)=C(O)[C@@]3(O)C(=O)C1=C2O
Potency (MCC-26): inactive | Potency (UISO): inconclusive: 75 µM [inhibitor, partial curve, poor fit] | Potency (WaGa): active: 18.8 µM

O=C(NCCO[N+](=O)[O-])c1cccnc1
Potency (MCC-26): inactive | Potency (UISO): inactive | Potency (CASKI): inactive

Cc1nc(Nc2ncc(C(=O)Nc3c(C)cccc3Cl)s2)cc(N2CCN(CCO)CC2)n1
Potency (MCC-26): inconclusive: 20.9 nM [inhibitor, full curve] and inconclusive: 53.1 nM [inhibitor, full curve] | Potency (UISO): inconclusive: 7.43 µM [inhibitor, partial curve] and inconclusive: 21.1 µM [inhibitor, single point] | Potency (C33A): inconclusive: 39.8 µM [cytotoxic, single point] | Potency (CAOV3): inconclusive: 316 nM [cytotoxic, full curve, poor fit] and active: 8.91 µM | Potency (CASKI): inconclusive: 2.24 µM [cytotoxic, partial curve, poor fit] and inconclusive: 891 nM [cytotoxic, partial curve, poor fit] | Potency (Es-2): inconclusive: 25.1 µM [cytotoxic, partial curve, poor fit] and inconclusive: 17.8 µM [cytotoxic, partial curve, poor fit]

CN(C)S(=O)(=O)c1ccc2c(c1)C(=Cc1cc3c([nH]1)CCCC3)C(=O)N2
Potency (MKL-1): inconclusive: 16.6 µM [inhibitor, partial curve]

CCCCC(C=O)NC(=O)C(CC(C)C)NC(=O)OCc1ccccc1 (centres undefined)
Potency (MKL-1): inactive

COc1ccc(CC2SC(=O)NC2=O)cc1C(=O)NCc1ccc(C(F)(F)F)cc1 (centres undefined)
Potency (MKL-1): inactive

N#Cc1ccc(C(c2ccc(C#N)cc2)n2cncn2)cc1
Potency (MKL-1): inconclusive: 20.9 µM [inhibitor, single point]

CN1N=C(N)c2cn([C@@H]3O[C@H](COP(=O)(O)O)[C@@H](O)[C@@H]3O)c3ncnc1c23
Potency (MKL-1): active: 5.9 µM

Nc1ccn([C@@H]2O[C@H](CO)[C@@H](O)[C@H]2O)c(=O)n1
Potency (MCC-26): inconclusive: 2.09 µM [inhibitor, partial curve] | Potency (UISO): inconclusive: 0.0083 µM [inhibitor, full curve]

CNCCCC12CCC(c3ccccc31)c1ccccc12
Potency (MCC-26): inconclusive: 18.8 µM [inhibitor, partial curve] | Potency (UISO): inconclusive: 20.9 µM [inhibitor, single point] | Potency (WaGa): active: 29.9 µM | Potency (CAOV3): inconclusive: 20 µM [cytotoxic, single point] and inconclusive: 39.8 µM [cytotoxic, single point] | Potency (CASKI): inconclusive: 35.5 µM [cytotoxic, single point] and inconclusive: 39.8 µM [cytotoxic, partial curve, poor fit] | Potency (Es-2): inconclusive: 39.8 µM [cytotoxic, single point] and inconclusive: 22.4 µM [cytotoxic, single point]

O=C(O)c1c(Cl)c(Cl)c(Cl)c(Cl)c1-c1c2cc(I)c(=O)c(I)c-2oc2c(I)c(O)c(I)cc12
Potency (MCC-26): inconclusive: 26.4 µM [inhibitor, single point] | Potency (MKL-2): inconclusive: 11.8 µM [inhibitor, partial curve, poor fit] | Potency (WaGa): inconclusive: 16.6 µM [inhibitor, partial curve]

CC(C)=CC[C@@H](O)C1=CC(=O)c2c(O)ccc(O)c2C1=O
Potency (MKL-1): inconclusive: 29.6 µM [inhibitor, single point] | Potency (MKL-2): active: 20.9 µM

CC[C@H](NC(C)C)[C@H](O)c1ccc(O)c2[nH]c(=O)ccc12
Potency (MKL-1): inactive

Cc1ccn(-c2ccc(-c3ncco3)cc2)c(=O)c1-c1ccc2nc(N)ncc2c1
Potency (MCC-26): inconclusive: 13.2 µM [inhibitor, partial curve] | Potency (MKL-2): inconclusive: 2.96 µM [inhibitor, full curve, poor fit] | Potency (UISO): inconclusive: 3.32 µM [inhibitor, partial curve] | Potency (CASKI): inconclusive: 28.2 µM [cytotoxic, single point] | Potency (Es-2): inconclusive: 31.6 µM [cytotoxic, single point]
